{"source": "PubChem BioAssay (Tox21)", "key": {"[1]": {"assay": "qHTS assay for identifying genotoxic compounds that show differential cytotoxicity against isogenic chicken DT40 cell lines with known DNA damage response pathways - wild type cell line (AID 743012); also: potency is read from the fitted curve at half-maximal effect; nearly all actives have a fitted effect of over 60% in size", "conditions": "DT40 wild type chicken cells viability, CellTiter-Glo, 40 h; activity change, negative = cytotoxicity: at 68.4 µM (top of the series) unless noted", "how_it_was_run": "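Luminescent ATP viability signal (CellTiter-Glo, 30 min RT) recorded after wild type DT40 cells were incubated with compounds for 40 h at 37 C/5% CO2.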"}, "[2]": {"assay": "qHTS assay for identifying genotoxic compounds that show differential cytotoxicity against isogenic chicken DT40 cell lines with known DNA damage response pathways - Rad54/Ku70 mutant cell line (AID 743015); also: potency is read from the fitted curve at half-maximal effect; nearly all actives have a fitted effect of over 60% in size", "conditions": "DT40 Rad54/Ku70 mutant viability, CellTiter-Glo, 40 h; activity change, negative = cytotoxicity: at 66.8 µM (top of the series)"}, "[3]": {"assay": "qHTS assay to identify small molecule antagonists of the androgen receptor (AR) signaling pathway - cell viability counter screen (AID 743033; also: nearly all actives have a fitted effect of over 45% in size; also: potency is read from the fitted curve at half-maximal effect; as to activity change, negative = cytotoxicity: % is scaled to controls: 0 for no effect and ±100 for the full control effect)", "conditions": "AR-bla HEK293 viability, CellTiter-Glo luminescence, 16 h; activity change, negative = cytotoxicity: at 58.5 µM (top of the series) unless noted"}, "[4]": {"assay": "qHTS assay to identify small molecule antagonists of the estrogen receptor alpha (ER-alpha) signaling pathway - cell viability counter screen (AID 743074; calls by dose curve; also: potency is read from the fitted curve at half-maximal effect; nearly all actives have a fitted effect of over 45% in size)"}, "[5]": {"molecular_target": "Estrogen receptor (Homo sapiens) (UniProt P03372)", "sequence (P03372 whole entry, looked up)": "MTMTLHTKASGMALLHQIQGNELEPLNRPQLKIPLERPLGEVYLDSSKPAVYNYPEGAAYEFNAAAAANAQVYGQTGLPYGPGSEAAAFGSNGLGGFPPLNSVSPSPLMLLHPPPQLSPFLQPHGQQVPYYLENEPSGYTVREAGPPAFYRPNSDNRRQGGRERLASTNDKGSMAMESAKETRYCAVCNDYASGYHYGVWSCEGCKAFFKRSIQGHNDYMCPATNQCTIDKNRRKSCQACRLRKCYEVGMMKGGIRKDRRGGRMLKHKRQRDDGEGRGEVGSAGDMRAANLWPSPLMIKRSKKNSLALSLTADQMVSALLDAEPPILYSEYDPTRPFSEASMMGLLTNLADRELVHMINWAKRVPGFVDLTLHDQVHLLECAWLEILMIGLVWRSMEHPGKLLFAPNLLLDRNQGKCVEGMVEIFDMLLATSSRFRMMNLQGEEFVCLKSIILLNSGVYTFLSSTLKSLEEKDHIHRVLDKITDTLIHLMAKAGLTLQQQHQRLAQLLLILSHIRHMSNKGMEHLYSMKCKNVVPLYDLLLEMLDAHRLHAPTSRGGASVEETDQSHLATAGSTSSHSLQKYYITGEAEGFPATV", "assay": "qHTS assay to identify small molecule agonists of the estrogen receptor alpha (ER-alpha) signaling pathway using the BG1 cell line (AID 743079); also: nearly all actives have a fitted effect of over 20% in size; also: potency is read from the fitted curve at half-maximal effect; as to activation: % is scaled to controls: 0 for no effect and ±100 for the full control effect", "conditions": "BG1Luc4E2 cells, ERE-luciferase agonist, 22 h; activation: at 70.3 µM (top of the series) unless noted"}, "[6]": {"assay": "qHTS assay to identify small molecule antagonists of the thyroid receptor (TR) signaling pathway (AID 743065); also: nearly all actives have a fitted effect of over 55% in size; also: potency is read from the fitted curve at half-maximal effect", "how_it_was_run": "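GH3.TRE-Luc rat pituitary cells (two TREs driving luciferase) were dosed with compound, then stimulated with 1 nM T3 (final) for 23.5 h at 37 C. ONE-Glo luminescence was the read-out, with CellTiter-Fluor fluorescence as the cytotoxicity counter-screen.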"}, "[7]": {"assay": "qHTS assay to identify small molecule antagonists of the estrogen receptor alpha (ER-alpha) signaling pathway using the BG1 cell line (AID 743080; calls by dose curve; also: % is scaled to controls: 0 for no effect and ±100 for the full control effect; nearly all actives have a fitted effect of over 25% in size)", "conditions": "BG1Luc4E2 ERE-luciferase antagonist mode, luminescence; activity change, negative = inhibition: at 70.3 µM (top of the series) unless noted", "how_it_was_run": "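Seeding, 24 h rest, compound transfer from DMSO, 17beta-estradiol addition, 21.5 h incubation, CellTiter-Fluor (30 min, 37 C), then ONE-Glo (30 min, room temperature): this sequence was run on BG1-Luc-4E2 reporter cells.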"}, "[8]": {"molecular_target": "Androgen receptor (Homo sapiens) (UniProt P10275)", "sequence (P10275 whole entry, looked up)": "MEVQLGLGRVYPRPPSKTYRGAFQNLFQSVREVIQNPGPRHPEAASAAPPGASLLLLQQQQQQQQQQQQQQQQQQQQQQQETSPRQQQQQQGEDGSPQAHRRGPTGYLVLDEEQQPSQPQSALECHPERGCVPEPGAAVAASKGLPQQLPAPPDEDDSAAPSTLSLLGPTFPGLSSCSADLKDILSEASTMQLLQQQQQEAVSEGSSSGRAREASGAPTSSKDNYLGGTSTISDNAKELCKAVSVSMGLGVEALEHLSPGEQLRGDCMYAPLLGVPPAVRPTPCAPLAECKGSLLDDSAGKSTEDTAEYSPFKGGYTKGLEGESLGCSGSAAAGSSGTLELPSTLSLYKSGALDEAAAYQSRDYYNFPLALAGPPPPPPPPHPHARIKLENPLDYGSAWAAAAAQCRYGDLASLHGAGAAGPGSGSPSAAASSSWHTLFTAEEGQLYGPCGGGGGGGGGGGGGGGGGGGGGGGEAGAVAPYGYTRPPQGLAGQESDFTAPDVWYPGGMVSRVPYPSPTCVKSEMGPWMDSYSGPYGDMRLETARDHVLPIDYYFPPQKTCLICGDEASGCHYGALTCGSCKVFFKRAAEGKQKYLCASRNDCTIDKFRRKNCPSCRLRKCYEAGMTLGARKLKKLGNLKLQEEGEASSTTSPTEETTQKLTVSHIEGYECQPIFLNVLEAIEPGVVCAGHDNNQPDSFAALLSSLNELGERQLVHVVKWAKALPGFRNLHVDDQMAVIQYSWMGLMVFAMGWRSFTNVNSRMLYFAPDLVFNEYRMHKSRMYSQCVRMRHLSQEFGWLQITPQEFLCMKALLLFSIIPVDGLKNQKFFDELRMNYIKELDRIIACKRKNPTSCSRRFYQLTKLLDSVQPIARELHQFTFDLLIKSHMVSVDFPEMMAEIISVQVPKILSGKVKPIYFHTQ", "assay": "qHTS assay to identify small molecule agonists of the androgen receptor (AR) signaling pathway (AID 743036; active = well fitted activation curve with a large enough effect in the signal ratio in the repeat runs, with a control signal flat, not every such curve was filed as active; inconclusive = weak or mixed curves, or effect the other way; inactive = no such curve, though single readings can be large or run the other way; the % refers to the signal ratio; also: % is scaled to controls: 0 for no effect and ±100 for the full control effect)", "conditions": "HEK293 AR-UAS-bla GripTite, beta-lactamase FRET ratio, 16 h; activation: at 62.4 µM (top of the series) unless noted", "how_it_was_run": "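Following a 4 h settling period, AR-UAS-bla HEK293 cells were dosed with compounds for 16 h at 37C. A 2 h room-temperature incubation with LiveBLAzer B/G FRET substrate preceded the fluorescence measurement.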"}, "[9]": {"molecular_target": "Androgen receptor (Homo sapiens) (UniProt P10275)", "assay": "qHTS assay to identify small molecule antagonists of the androgen receptor (AR) signaling pathway using the MDA cell line (AID 743042; also: % is scaled to controls: 0 for no effect and ±100 for the full control effect; nearly all actives have a fitted effect of over 55% in size)", "how_it_was_run": "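MDA-kb2 breast carcinoma cells carrying MMTV-luciferase (AR/GR responsive) were co-treated with compounds and the agonist R1881 for 16 h at 37C. Inhibition read as ONE-Glo luminescence; CellTiter-Fluor fluorescence measured in parallel for cytotoxicity.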"}, "[10]": {"assay": "qHTS assay to identify small molecule antagonists of the thyroid receptor (TR) signaling pathway - cell viability counter screen (AID 743064); also: potency is read from the fitted curve at half-maximal effect; nearly all actives have a fitted effect of over 50% in size", "conditions": "GH3.TRE-Luc viability, CellTiter-Fluor, 24 h; activity change, negative = cytotoxic: at 70.3 µM (top of the series) unless noted", "how_it_was_run": "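CellTiter-Fluor readout, 30 min at 37 °C/5% CO2, following 23.5 h incubation of GH3.TRE-Luc cells with test compound and 1 nM T3 (final).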"}, "[11]": {"assay": "qHTS assay to identify small molecule antagonists of the estrogen receptor alpha (ER-alpha) signaling pathway using the BG1 cell line - cell viability counter screen (AID 743081);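 also: compound given together with 17beta-estradiol as the ER stimulus; nearly all actives have a fitted effect of over 45% in size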; also: potency is read from the fitted curve at half-maximal effect", "conditions": "BG1Luc4E2 viability, CellTiter-Fluor, 22 h; activity change, negative = cytotoxicity: at 70.3 µM (top of the series) unless noted"}, "[12]": {"system": "thyroid hormone receptor (rat, GH3 cells)", "assay": "qHTS assay to identify small molecule agonists of the thyroid receptor (TR) signaling pathway (AID 743066; calls by dose curve; also: % is scaled to controls: 0 for no effect and ±100 for the full control effect)", "conditions": "GH3.TRE-Luc cells, TR agonist luciferase, 24 h"}}, "note": "Where “and” joins values, the source holds several entries; their conditions need not be identical. Identical values can stand only once. Inconclusive means that the source gave no clear call. Such entries were picked first, then a sample of the others. For some of these results: A potency beside an inconclusive call is a rough fit, not a confirmed value. Calls of active or inactive are those of the source. Unless noted, calls follow the shape of the dose curve; as a rule, active = well fitted curve in the direction sought with a large enough effect in the repeat runs; inconclusive = weak or mixed curves; inactive = no such curve, though single readings can be large; an effect the other way counts as inactive or inconclusive. Tags tell the direction and shape of the fitted curve."}
{"smiles": "CCCCOc1ccc(CC(=O)NO)cc1", "values": [{"measurement": "Potency", "setting": "[1]", "result": "inconclusive: 12.7 µM [cytotoxic, single point]"}, {"measurement": "Potency", "setting": "[2]", "result": "inconclusive: 14.3 µM [cytotoxic, single point]"}, {"measurement": "Potency", "setting": "[3]", "result": "inactive"}, {"measurement": "Potency", "setting": "[4]", "result": "inconclusive: 1.02 µM [rising, full curve, poor fit]"}]}
{"smiles": "CC(C)OC=O", "values": [{"measurement": "Potency", "setting": "[1]", "result": "inconclusive: 72.9 µM [cytotoxic, single point]"}, {"measurement": "Potency", "setting": "[2]", "result": "inconclusive: 72.9 µM [cytotoxic, single point]"}, {"measurement": "Potency", "setting": "[3]", "result": "inconclusive: 58.4 µM [cytotoxic, single point]"}, {"measurement": "Potency", "setting": "[5]", "result": "inactive"}]}
{"smiles": "Cc1nc2ccccn2c(=O)c1CCN1CCC(C(=O)c2ccc(F)cc2)CC1", "values": [{"measurement": "Potency", "setting": "[1]", "result": "inconclusive: 7.5 µM [cytotoxic, full curve]"}, {"measurement": "Potency", "setting": "[2]", "result": "inconclusive: 21.1 µM [cytotoxic, partial curve]"}, {"measurement": "Potency", "setting": "[6]", "result": "inconclusive: 33.5 µM [inhibitor]"}, {"measurement": "activity change, negative = inhibition", "setting": "[7]", "result": "inconclusive: -19.4%"}]}
{"smiles": "CO/N=C1\\CN(c2nc3c(cc2F)c(=O)c(C(=O)O)cn3C2CC2)CC1CN", "note": "(stereo unspecified)", "values": [{"measurement": "Potency", "setting": "[1]", "result": "inconclusive: 29.8 µM [cytotoxic, partial curve]"}, {"measurement": "Potency", "setting": "[2]", "result": "inconclusive: 23.7 µM [cytotoxic, partial curve]"}]}
{"smiles": "C=CCCCCCCCCCCC", "values": [{"measurement": "Potency", "setting": "[1]", "result": "inconclusive: 0.47 µM [rising, full curve, poor fit]"}, {"measurement": "activity change, negative = cytotoxicity", "setting": "[3]", "result": "inactive: -0.32% [at 7.04 µM]"}, {"measurement": "activation", "setting": "[8]", "result": "inactive: -0.154% [at 6.9 µM]"}, {"measurement": "activity change, negative = inhibition", "setting": "[9]", "result": "inactive: 17.6% [at 8.47 µM]"}, {"measurement": "activity, negative = inhibition", "setting": "[6]", "result": "inactive: 8.56% [at 8.44 µM]"}, {"measurement": "Potency", "setting": "[4]", "result": "inconclusive: 0.0377 µM [rising, full curve, poor fit]"}]}
{"smiles": "CCCCCCCCCCCC(=O)N(CC)CC", "values": [{"measurement": "Potency", "setting": "[1]", "result": "inconclusive: 43.3 µM [cytotoxic, partial curve, poor fit]"}, {"measurement": "Potency", "setting": "[2]", "result": "inconclusive: 43.3 µM [cytotoxic, partial curve]"}, {"measurement": "Potency", "setting": "[10]", "result": "inconclusive: 68.6 µM [rising, single point]"}, {"measurement": "Potency", "setting": "[11]", "result": "inactive"}]}
{"smiles": "Oc1c(Cl)cc(Cl)cc1Sc1cc(Cl)cc(Cl)c1O", "values": [{"measurement": "Potency", "setting": "[1]", "result": "inconclusive: 39.2 µM [cytotoxic, full curve, poor fit]"}, {"measurement": "Potency", "setting": "[2]", "result": "active: 17.3 µM [middle of 4 runs]"}, {"measurement": "activation", "setting": "[12]; activation: at 83.9 µM (top of the series) unless noted", "result": "inconclusive: -8.33% [phenotype inactive]"}, {"measurement": "activation", "setting": "[12]; at 83.9 µM (top of the series)", "result": "inactive: -8.99% and inactive: -11.4%"}, {"measurement": "activation", "setting": "[12]; at 95.2 µM (top of the series)", "result": "inactive: -9.63%"}, {"measurement": "Potency", "setting": "[5]", "result": "inconclusive: 21.1 µM [inhibitor, partial curve] [middle of 4 runs]"}, {"measurement": "Potency", "setting": "[11]", "result": "inconclusive: 21.7 µM [cytotoxic, full curve] and inconclusive: 27.8 µM [cytotoxic, full curve] and inconclusive: 34.4 µM [cytotoxic, full curve]"}]}
